Out of some 280,000 compounds screened, about 2,600 (0.93%) were called active. Not shown: some 8% with an inconclusive outcome. Calls come from the whole dose curve; as a rule, active = well fitted curve in the direction sought with a large enough effect; inconclusive = small, poorly fitted or top-dose-only effect; inactive = flat fitted curve, though single readings scatter. The entries are a selection whose mix differs from that of the whole data set.
Assay: Counterscreen qHTS for Inhibitors of Tau Fibril Formation, Fluorescence Polarization; note: nearly all actives have a fitted effect of over 55% in size
Conditions: tau K18 P301L Alexa594 fluorescence, heparin fibrillization; series mostly up to 57.7 µM; activity change, negative = decrease: at the top concentration
Method in brief: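 Human tau K18 P301L (15 uM unlabeled, 0.24 uM Alexa 594-labeled) in 100 mM sodium acetate pH 7 with 20 uM heparin, 6 hr at 37 C. ThT 30 uM added, 1 hr ambient; Alexa 594 FP and total fluorescence read at 555/632 nm.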
% is set by controls: 0 for no effect and ±100 for the full control effect; potency is the fitted concentration of half-maximal effect; tags give direction and shape of the fitted curve or compound fluorescence and quenching.

| SMILES | Potency | activity change, negative = decrease |
| --- | --- | --- |
| Nc1ccccc1Nc1cc(-c2cccc(Cl)c2)nn1-c1ccccc1 | active: 12.6 µM [quencher] |  |
| CNc1cc(NS(=O)(=O)c2ccc(N)cc2)nc(NC)n1 |  | inactive: -21.9% |
| COc1ccc(-c2c(-c3ccc(OCC(=O)NN)cc3O)n[nH]c2C(F)(F)F)cc1 | active: 22.4 µM [quencher] |  |
| Cc1cc(C)c2oc(C(=O)Nc3ccc(S(=O)(=O)N4CCC(C)CC4)cc3)cc(=O)c2c1 |  | inactive: -4.01% |
| O=S(=O)(Nc1cc(F)ccc1F)c1ccc2[nH]c3c(c2c1)CCCC3 | active: 11.2 µM [quencher] |  |
| CC(=O)Nc1ccc(C2=NNC(=Nc3cccc(S(=O)(=O)N(C)C)c3)SC2)cc1 | active: 14.1 µM [quencher] |  |
| COC(=O)[C@@]1(Cc2ccc(F)cc2)[C@H]2c3cc(C(=O)N4CCCC4)n(CCc4ccc(O)c(O)c4)c3C[C@H]2CN1C(=O)c1ccccc1 |  | inactive: -26.8% |
| O=[N+]([O-])c1cc(Cl)ccc1N1CCN(c2ccccc2O)CC1 | active: 15.8 µM [quencher] |  |
| COc1cccc(-c2ccc3c(N)c(C(=O)c4ccc(Br)cc4)sc3n2)c1 | active: 2.51 µM [quencher] |  |
| Cc1ccc(C(=O)Nc2ccc(C(=O)N/N=C/c3c[nH]c4ccccc34)cc2)cc1 | active: 14.1 µM [quencher] |  |
| Clc1cccc(CN2CCC(Cc3ccccc3)CC2)c1 | active: 12.6 µM [quencher] |  |
| CCC1=C(OC(=O)N(CC)CC)N2C(=O)OC(=NCCc3c[nH]c4ccccc34)[C@]2(C)[C@H]2C1=CC[C@H]1C(=O)N(CC)C(=O)[C@H]12 |  | inactive: -17.7% |
| COc1ccc(-c2nc(SCC(=O)NC3CCCC3)c(-c3ccccc3)[nH]2)cc1OC | active: 14.1 µM [quencher] |  |
| COc1cccc(-c2nc(N3CCN(Cc4ccccc4)CC3)c3ccccc3n2)c1O |  | inactive: -1.47% |
| COc1cccc(COC(=O)c2nn(-c3ccccc3)nc2N)c1 |  | inactive: -27.6% |
| CC1(C)OC(c2ccccc2)=C/C(=C/C=N/NC(=O)c2ccncc2)O1 |  | inactive: 10.6% |
| COC(=O)c1ccc(NC(=O)CN2CCN(c3ccc(Cl)cc3)CC2)cc1 |  | inactive: -26% |
| Cc1occc1C(=O)N/N=C/C(Br)=C/c1ccccc1 |  | inactive: -28.4% |
| COC(=O)C1=C(C(=O)OC)[C@@H]2N(C)c3ccc(OC)cc3[C@@]23C[C@@H](C(=O)OC)N(S(=O)(=O)c2ccc([N+](=O)[O-])cc2)C3=N1 |  | inactive: -22.3% |
| O=C1OCCN1C(=O)[C@H]1[C@H](c2ccc(Cl)cc2)C(c2cccc(Cl)c2)=NN1c1ccccc1 |  | inactive: 2.52% |
| Cc1ccc(S(=O)(=O)/N=C2/C=C(C3C(=O)CC(C)(C)CC3=O)C(=O)c3ccccc32)cc1 | active: 8.91 µM [quencher] |  |

| SMILES | Potency | activity change, negative = decrease |
| --- | --- | --- |
| C(=N\Nc1nc(-c2ccccc2)cs1)/c1ccncc1 | active: 12.6 µM [quencher] |  |
| COc1ccc(-c2cc(=O)c3c(O)cc(O)cc3o2)cc1 |  | inactive: -22% |
| CC(=O)c1cccc(NC(=O)Nc2csc3c2CCCC3)c1 | active: 11.2 µM [quencher] |  |
| CCN(c1ccc(OC)cc1)S(=O)(=O)c1ccc2[nH]c3c(c2c1)CCCCC3 | active: 10 µM [quencher] |  |
| COc1cc(-c2nc3ccc(C)cn3c2Nc2ccc3c(c2)OCCO3)ccc1O | active: 15.8 µM [quencher] |  |
| COc1ccc(S(=O)(=O)c2c(C)c(NS(=O)(=O)c3ccccc3)cc(C)c2O)cc1 |  | inactive: -21.2% |
| Cn1c(N)c(C(=O)COC(=O)c2cc(C(F)(F)F)nc3ccccc23)c(=O)n(C)c1=O |  | inactive: -16.4% |
| Cc1ccc(-c2cc(N)n3nc(-c4ccc(C)cc4)cc3n2)cc1 |  | inactive: -29.3% |
| COc1ccc(NC(=O)c2ccc(-c3ccc(-c4noc(C)n4)cc3C)cc2)cc1OCCN(C)C |  | inactive: -30.7% |
| Cc1ccc(NC(=O)N2CC=C(c3c[nH]c4ccccc34)CC2)cc1Cl | active: 14.1 µM [quencher] |  |
| Cn1c(NCc2c(O)ccc3ccccc23)nc2ccccc21 | active: 17.8 µM [quencher] |  |
| COc1cc(/C=C/c2cc(OC(C)=O)c3ccccc3n2)c(OC(C)=O)c([N+](=O)[O-])c1 | active: 12.6 µM [quencher] |  |
| CN(C)C1C(=O)C(C(N)=O)=C(O)[C@@]2(O)C(=O)C3=C(O)c4c(O)ccc(Cl)c4C(O)[C@H]3C[C@@H]12 (stereo partly specified) |  | inactive: -8.92% |
| CCCCc1ccc(-c2csc(/C(C#N)=C/c3ccc(C)o3)n2)cc1 |  | inactive: -28.6% |
| CCO/C=C1\C(=O)N(CC)c2ccccc21 |  | inactive: -7.75% |
| COc1ccc(NC(=O)c2ccc(COc3ccccc3OC)o2)cc1OC |  | inactive: -20.4% |
| Nc1nc(N)c(C=Nc2ccc(Br)cc2)c(Nc2ccc(Br)cc2)n1 | active: 10 µM [quencher] |  |
| CCN(CC)CCCN1C=C2C(=O)C(C)(OC(=O)CCc3ccccc3)C(=O)C=C2C=C1c1ccc(C#N)cc1 (stereo unspecified) |  | inactive: -7.82% [at 11.6 µM] |
| Oc1ccc(-c2cn3c(n2)SCC3)cc1O | active: 14.1 µM [quencher] |  |
| O=C(/C=C/c1ccc(-c2cccc([N+](=O)[O-])c2)o1)N1CCOCC1 |  | inactive: -24.5% |

From PubChem BioAssay AID1463 (National Center for Advancing Translational Sciences (NCATS), 2008)
